From PubChem BioAssay AID485290 (National Center for Advancing Translational Sciences (NCATS), 2010)
Several values for one entry are separate records, joined by “and”; a condition that tells them apart may be missing. Identical values can stand only once. In all, about 350,000 compounds went through this assay and about 990 (0.28%) were called active. The inconclusive results got no clear call from the source; some entries with a clear call stand among them for comparison. The call rests on the fitted dose curve; in most records, active means well fitted inhibition curve with a large enough effect; inconclusive means small, poorly fitted or top-dose-only effect; inactive means no such curve, though single readings can be large or run the other way. Where the call is inconclusive, the potency comes from a doubtful curve fit.

Molecular target: Tyrosyl-DNA phosphodiesterase 1 (Homo sapiens) (UniProt Q9NUW8)
Test: qHTS Assay for Inhibitors of Tyrosyl-DNA Phosphodiesterase (TDP1); further: nearly all actives have a fitted effect of over 40% in size
Details: recombinant TDP1, AlphaScreen DNA substrate cleavage; activity change, negative = inhibition: at 130 µM (top of the series) unless noted
Method in brief: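 Recombinant E. coli-expressed Tdp1 (1 nM) preincubated with compound 15 min at RT, then 5'-biotin/3'-phosphotyrosine-FITC DNA substrate (15 nM) added for 5 min. AlphaScreen beads (10 ug/ml) added, 10 min RT; tyrosine-FITC cleavage read as signal loss.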
On the % scale 0 is the no-effect control and ±100 the full control effect; potency means the concentration at half of the fitted maximal effect; tags describe the fitted curve by direction and shape.

Sequence of UniProt Q9NUW8 (Q9NUW8 whole entry, looked up): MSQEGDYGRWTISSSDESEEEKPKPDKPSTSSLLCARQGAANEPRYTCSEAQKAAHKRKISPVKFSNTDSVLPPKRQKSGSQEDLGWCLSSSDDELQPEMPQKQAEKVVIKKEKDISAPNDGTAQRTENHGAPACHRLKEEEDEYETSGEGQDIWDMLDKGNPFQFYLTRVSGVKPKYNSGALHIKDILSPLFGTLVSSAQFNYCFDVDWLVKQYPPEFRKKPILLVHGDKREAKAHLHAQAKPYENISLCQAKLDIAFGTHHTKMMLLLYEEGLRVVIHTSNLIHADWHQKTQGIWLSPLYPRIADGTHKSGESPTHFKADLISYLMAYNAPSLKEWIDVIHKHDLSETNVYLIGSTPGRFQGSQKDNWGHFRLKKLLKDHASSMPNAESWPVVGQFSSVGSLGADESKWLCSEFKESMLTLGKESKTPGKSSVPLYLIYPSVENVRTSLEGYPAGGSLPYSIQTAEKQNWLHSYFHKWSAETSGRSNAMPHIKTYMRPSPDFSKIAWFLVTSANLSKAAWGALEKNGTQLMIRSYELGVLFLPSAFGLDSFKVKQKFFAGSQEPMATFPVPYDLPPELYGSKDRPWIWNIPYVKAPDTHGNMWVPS

Structure (SMILES) | Potency | activity change, negative = inhibition
NC(=O)c1ccccc1 | inconclusive: 100 µM [inhibitor, single point] and inconclusive: 35.5 nM [inhibitor, full curve, poor fit] | 
CCCNC(=O)Nc1ccc2c(c1)N(C)C(=O)c1ccccc1S2 |  | inactive: -2.27%
O=C(COc1cccc2cccnc12)N/N=C/c1ccccc1O | inconclusive: 11.2 µM [inhibitor, partial curve, poor fit] | 
CN1CCN(CCC(=O)N/N=C/C=C2\N(C)c3ccccc3C2(C)C)CC1 | inconclusive: 20 µM [inhibitor, partial curve, poor fit] | 
CN(C)CCCCOc1ccc(Br)cc1Cl | inconclusive: 35.5 µM [inhibitor, single point] | 
CCOc1ccc(NC(=O)CN(C)S(=O)(=O)c2ccc(-c3ccc(=O)[nH]n3)s2)cc1 | inconclusive: 50.1 µM [inhibitor, partial curve] | 
COc1ccc(NC(=O)CSc2ncccc2C(=O)O)cc1OC | inconclusive: 1.41 µM [inhibitor, full curve] | 
CCSC1=N/C(=C/c2ccsc2)C(=O)N1c1ccccc1 | inconclusive: 22.4 µM [inhibitor, single point] | 
O=C(c1ccccc1)C(c1ccccc1)c1ccccc1 | inconclusive: 50.1 µM [inhibitor, partial curve] | 
C[C@H]1C(c2cccc(Cl)c2)=NN(c2ccccc2)[C@@H]1CO | active: 39.8 µM | 
Cc1cc(C=O)c(C)n1-c1ccc(Cl)c(C(=O)O)c1 | active: 44.7 µM | 
Cc1ccccc1C(=O)N=c1c(C#N)cc2c(=O)n3cccc(C)c3nc2n1Cc1ccco1 | inconclusive: 12.6 µM [inhibitor, partial curve, poor fit] | 
COc1cccc(COCC(O)CN2CCC(C(N)=O)CC2)c1 (configuration not stated) | inconclusive: 0.631 µM [inhibitor, full curve, poor fit] | 
O=C(Nc1ccc(NC(=O)c2ccco2)c(Cl)c1)c1ccccc1 |  | inactive: -7.69%
COC(=O)C1C(O)=C(C=Nc2ccc3ccccc3c2)C(=O)CC1(C)C (configuration not stated) | inconclusive: 15.8 µM [inhibitor, partial curve] | 
c1ccc(SCCOCCn2cncn2)cc1 | inconclusive: 12.6 µM [inhibitor, full curve, poor fit] | 
O=C(CSc1nnc(Nc2ccccc2F)s1)NC(=O)CN1CCCC1=O | active: 14.1 µM | 
COc1cc(C=O)ccc1OCCOCCOc1c(C)cc(Cl)cc1Cl | inconclusive: 56.2 µM [inhibitor, partial curve, poor fit] | 
S=c1[nH]ncn1/N=C/c1cccs1 | inconclusive: 3.55 µM [inhibitor, partial curve] | 
Cc1ccc(/C=N/NC(=O)Cc2ccc(Cl)cc2)c(O)c1 | active: 50.1 µM | 
CCc1nc(Oc2cccc(F)c2)c2oc3ccccc3c2n1 | inconclusive: 79.4 µM [inhibitor, single point] | 
O=C(O)c1c2c(nc3ccccc13)/C(=C/c1ccc(O)cc1)CC2 | inconclusive: 5.01 µM [inhibitor, full curve] | 
CC(=O)/C(N=Nc1ccc(-n2ccc(C(F)(F)F)n2)cc1)=C(\C)O | inconclusive: 0.398 µM [inhibitor, partial curve] | 
O=C1CCC([N+](=O)[O-])C(c2cccc([N+](=O)[O-])c2)N1 (configuration not stated) | inconclusive: 3.16 µM [inhibitor, full curve] | 

Structure (SMILES) | Potency | activity change, negative = inhibition
CCc1ccc2[nH]c(=O)c(CN(CCN(C)C)C(=O)Nc3ccccc3OC)cc2c1 |  | inactive: 3.85%
Cc1cc2c(c(=O)o1)[C@@H](O)[C@H]1O[C@@H]1C2=O | inconclusive: 1.12 µM [inhibitor, partial curve] | 
C(=C\c1ccco1)/C1=NN(c2ccccc2)C(c2ccco2)C1 (configuration not stated) | inconclusive: 10 µM [inhibitor, partial curve] | 
O=C(Nc1ccc(-c2cn3ccccc3n2)cc1)c1cccs1 | inconclusive: 100 µM [inhibitor, single point] | 
O=C1C2=CC[C@@H]3C(=O)N(c4ccc(F)cc4F)C(=O)[C@H]3[C@H]2[C@H](O)[C@H]2O[C@H]12 | inconclusive: 5.62 µM [inhibitor, single point] | 
N#Cc1ccc(NC(=O)COc2ccc(-n3cnnn3)cc2)cc1 | inconclusive: 63.1 µM [inhibitor, partial curve] | 
Cc1cc(NC(=O)CN2CCOCC2)n(-c2nc3ccccc3s2)n1 |  | inactive: 4.08%
COC(=O)c1c(-c2cccs2)csc1NC(=O)COc1ccc(C(C)(C)C)cc1 | inconclusive: 39.8 µM [inhibitor, single point] | 
CC(=O)/C(=N\Nc1ccccc1)Oc1ccc([N+](=O)[O-])cc1 |  | inactive: -6.7%
CC1CCC2(CC1)NC(=O)N(CC(=O)Nc1sc3c(c1C(N)=O)CCC3)C2=O (configuration not stated) | inconclusive: 14.1 µM [inhibitor, full curve] | 
COc1ccc(S(=O)(=O)N2CCc3ccccc32)cc1C(=O)NCc1ccco1 | inconclusive: 0.794 µM [inhibitor, partial curve, poor fit] | 
COc1cccc(NC(=O)CN(C)C(=O)c2oc3c(ccc4ccccc43)c2C)c1 |  | inconclusive: -23.3% [inhibitor] [at 0.505 µM]
C/C(=N\Nc1ccc(Cl)c(C(=O)O)c1)c1ccc[nH]1 | inconclusive: 39.8 µM [inhibitor, partial curve] | 
N#C/C(=C\c1ccc(OCc2ccc(Br)cc2)cc1)C(=O)Nc1cccc(C(=O)O)c1 | active: 22.4 µM | 
COc1ccccc1C(O)c1nccn1Cc1ccccc1 (configuration not stated) | inconclusive: 4.47 µM [inhibitor, full curve] | 
CCCCCC(=O)NC(Nc1ccc(S(N)(=O)=O)cc1)C(Cl)(Cl)Cl (configuration not stated) |  | inactive: -2.29%
CC(=C\C(=O)O)/C(=C/c1ccco1)C(=O)O | inconclusive: 17.8 µM [inhibitor, full curve] | 
O=C1NC(=S)S/C1=C/c1ccc(OC(=O)c2ccco2)cc1 | active: 50.1 µM | 
CCOC(=O)CSc1nc(-c2ccc(C)cc2C)cc(-c2ccccc2)c1C#N | inconclusive: 3.55 µM [inhibitor, single point] | 
CN1CCC(OC(c2ccccc2)c2ccccc2)CC1 | inactive | 
S=C(Nc1ccc(N2CCOCC2)cc1)Nc1ccc2snnc2c1 |  | inactive: 5%
O=C(N/N=C\c1ccc2c(c1)OCO2)c1cncc(Br)c1 | active: 50.1 µM | 
Cc1noc(C)c1-c1ccc2ncnc(NCc3cccc(Cl)c3)c2c1 |  | inactive: 9.12%
COc1cccc(/C=C2\SC(=O)NC2=O)c1OCc1ccc(C(=O)O)cc1 | inconclusive: 89.1 µM [inhibitor, single point] | 

Structure (SMILES) | Potency | activity change, negative = inhibition
NC(CO)C(=O)NNCc1ccc(O)c(O)c1O (configuration not stated) | inconclusive: 5.62 µM [inhibitor, full curve] and inconclusive: 3.16 µM [inhibitor, partial curve] | 
CCC(=O)Nc1nc2ccccc2n1CCN(C)C |  | inactive: 3.98%
CCNC(=O)COC(=O)c1cc(-c2ccco2)nc2ccccc12 | inconclusive: 11.2 µM [inhibitor, full curve] | 
O=CN/C=C/c1cc(O)ccc1O | active: 7.94 µM | 
Oc1ccc(-c2n[nH]c(=S)n2-c2ccc3c(c2)OCCO3)c(O)c1 | inconclusive: 10 µM [inhibitor, partial curve] | 
c1ccc(-c2cn3nc(-c4ccccc4)c(-c4ccccc4)nc3n2)cc1 | inconclusive: 12.6 µM [inhibitor, full curve] | 
CC1CCCC(NC(=O)COC(=O)/C=C/c2ccco2)C1C (configuration not stated) | inconclusive: 50.1 µM [inhibitor, partial curve] | 
O=C(c1ccco1)N1CCc2ccccc21 | inconclusive: 31.6 µM [inhibitor, single point] | 
O=C(O)c1ccccc1-n1cccc1C(=O)O | inconclusive: 7.94 µM [inhibitor, full curve] | 
Cc1ccc(NC(=O)CN2C(=O)S/C(=C\c3cccn3-c3cccc(C(=O)O)c3)C2=O)c(C)c1 | active: 50.1 µM | 
CCOC(=O)c1cccc(NC(=O)CCc2nc3cccnc3n2-c2ccccc2)c1 |  | inactive: 6.41%
Cc1ccc[n+](-c2nc([O-])sc2C=O)c1 | active: 28.2 µM | 
c1csc(-c2csc3nc(CN4CCOCC4)nc(NCc4ccc5c(c4)OCO5)c23)c1 |  | inactive: 8.16%
CCn1c(=O)c([N+](=O)[O-])c(N2CCSCC2)c2ccccc21 |  | inactive: 9.52%
CCC(=O)Nc1cc(-c2cc3ccccc3oc2=O)ccc1OC | inconclusive: 22.4 µM [inhibitor, single point] | 
O=C(O)c1ccc(-n2cccc2/C=C2/NC(=O)N(c3cccc(Cl)c3)C2=O)cc1 | active: 1.58 µM | 
NC(=O)CSc1nnc(NC(=O)c2ccc(Br)o2)s1 | active: 56.2 µM | 
NC(=O)COC(=O)c1cccc(S(=O)(=O)N2CCN(c3ccccc3)CC2)c1 | inconclusive: 89.1 µM [inhibitor, single point] | 
CCn1ncc(S(=O)(=O)NCc2ccco2)c1C | inconclusive: 56.2 µM [inhibitor, partial curve] | 
NC(=O)c1ccsc1NC(=O)COC(=O)CNC(=O)c1ccc(F)cc1 |  | inactive: -14.4%
Cc1cc(CSc2ccccc2)ccc1NC(=O)COc1ccccc1C |  | inactive: -2.74%
COc1cc(/C=C/C(=O)OCC(=O)c2ccc[nH]2)cc(OC)c1OC | inconclusive: 39.8 µM [inhibitor, partial curve] | 
CCn1c2ccccc2c2c3ncc4cccn4c3ccc21 | inconclusive: 8.91 µM [inhibitor, full curve, poor fit] | 
COc1ccc(Cc2nc(-c3ccccc3)no2)cc1 | inconclusive: 56.2 µM [inhibitor, partial curve] | 
